The values that follow come from the supplement of paper PMC11880418.

Where a name gives a salt, the structure may show the parent alone. The list shows a part of the results. The data scatter; read single values as rough.
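Also: High-content imaging of ALDEFLUOR-stained cells with Hoechst-labelled nuclei in 384-well plates, triplicate wells, scored as Z-score against 0.1% DMSO vehicle, negative meaning fewer ALDHbr cells.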

For this test, the system named is MKN45. The test can be described thus: ALDHbr (CSC) cell proportion score relative to DMSO vehicle (ratio to DMSO); breast (SUM159) / gastric (MKN45) / pancreatic (PANC1) / colon cancer lines; ALDHbr cells have high ALDH activity and are rich in cancer stem cells (CSC); higher = more CSC (ALDHbr) cells remaining. Conditions: 10 µM; 72 h.
`C[C@H](O)C(=O)Nc1c(I)c(C(=O)NC(CO)CO)c(I)c(C(=O)NC(CO)CO)c1I` [Iopamidol]: the ALDHbr is 1.11.

For the compound `NNCCc1ccccc1` [Phenelzine sulfate], the ALDHbr is 1.94. With `COc1cc2nc(N(C)CCCNC(=O)C3CCCO3)nc(N)c2cc1OC` (stereo not drawn) [Alfuzosin hydrochloride], the ALDHbr was 0.96. Regarding `C[C@]12CC[C@@H]3c4ccc(OS(=O)(=O)O)cc4CC[C@H]3[C@@H]1CCC2=O` [Estropipate], the ALDHbr is 0.936. The same measure for `CO[C@@]1(NC(=O)CSCC#N)C(=O)N2C(C(=O)O)=C(CSc3nnnn3C)CS[C@@H]21` [Cefmetazole sodium salt]: 1.02; for `CCS(=O)(=O)CCn1c([N+](=O)[O-])cnc1C` [Tinidazole]: 0.987. As for `CC(C)NCC(O)c1ccc2ccccc2c1` (stereo not drawn) [Pronethalol hydrochloride], the figure is 1.19. The same measure for `CCc1c(C)[nH]c2c1C(=O)C(CN1CCOCC1)CC2` (stereo not drawn) [Molindone hydrochloride]: 0.994.
